{"source": "PubChem BioAssay (NCI)", "test_in_all_cases": "growth of human tumour cells (NCI), 48 h", "key": {"[1]": {"tested_on": "SF-295 CNS"}, "[2]": {"tested_on": "RPMI-8226 leukemia"}, "[3]": {"tested_on": "LOX IMVI melanoma"}, "[4]": {"tested_on": "MDA-MB-435"}, "[5]": {"tested_on": "NCI-H23 lung"}, "[6]": {"tested_on": "MOLT-4 leukemia"}, "[7]": {"tested_on": "OVCAR-8 ovarian"}, "[8]": {"tested_on": "HCT-15 colon"}, "[9]": {"tested_on": "HOP-92 NSCLC"}, "[10]": {"tested_on": "DU-145 prostate"}, "[11]": {"tested_on": "HCC-2998 colon"}, "[12]": {"tested_on": "MDA-MB-231 breast"}, "[13]": {"tested_on": "PC-3 prostate"}, "[14]": {"tested_on": "NCI-H226 lung"}, "[15]": {"tested_on": "M14 melanoma"}, "[16]": {"tested_on": "COLO 205 colon"}, "[17]": {"tested_on": "OVCAR-3 ovarian"}, "[18]": {"tested_on": "UACC-257 melanoma"}, "[19]": {"tested_on": "SK-MEL-2 melanoma"}, "[20]": {"tested_on": "EKVX NSCLC"}, "[21]": {"tested_on": "SF-268 CNS"}, "[22]": {"tested_on": "A498 renal"}, "[23]": {"tested_on": "NCI-H460 lung"}, "[24]": {"tested_on": "DLD-1 colon"}, "[25]": {"tested_on": "SK-OV-3 ovarian"}, "[26]": {"tested_on": "ACHN renal"}, "[27]": {"tested_on": "RXF 393 renal"}, "[28]": {"tested_on": "HOP-62 NSCLC"}}, "note": "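Five compound concentrations were applied to cells in 96-well plates for 48 hours; endpoints were derived by simple linear interpolation of the resulting dose-response curve. GI50 is the concentration that inhibits growth by half.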 A number of entries come with more than one value. Only these are listed. There may be further records. For part of these data: A record mostly stands for its own series of concentrations, not given here; some values may only mark the edge of a range. For part of these data: The values listed for one entry are repeats across runs, samples, wells, individuals or studies. A tag in brackets gives the origin of a value. The letters are not those of the source and start again with each entry.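 TGI: total growth inhibition.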"}
{"molecule": "COc1cccc(-c2cc(=O)c3cc(OC)ccc3[nH]2)c1", "values": [{"measurement": "TGI", "setting": "[1]", "value": "462 nM and 41.7 µM"}, {"measurement": "TGI", "setting": "[2]", "value": "3.89 µM and 165 nM"}, {"measurement": "TGI", "setting": "[3]", "value": "2.99 µM and 44.4 µM"}, {"measurement": "GI50", "setting": "[4]", "value": "128 nM and 39.8 µM"}, {"measurement": "TGI", "setting": "[4]", "value": "736 nM and > 100 µM"}, {"measurement": "TGI", "setting": "[5]", "value": "1.07 µM and > 100 µM"}, {"measurement": "TGI", "setting": "[6]", "value": "7.79 µM and 245 nM"}, {"measurement": "TGI", "setting": "[7]", "value": "1.84 µM and > 100 µM"}, {"measurement": "TGI", "setting": "[8]", "value": "2.07 µM and > 100 µM"}, {"measurement": "TGI", "setting": "[9]", "value": "5.56 µM and > 100 µM"}, {"measurement": "TGI", "setting": "[10]", "value": "7.98 µM and > 100 µM"}]}
{"molecule": "FC(F)c1nc2ccccc2n1-c1nc(N2CCOCC2)nc(N2CCOCC2)n1", "values": [{"measurement": "TGI", "setting": "[11]", "value": "5.79 µM [sample A, mean of 2 tests] and > 100 µM [sample B, mean of 2 tests]"}, {"measurement": "TGI", "setting": "[12]", "value": "7.34 µM [sample A, mean of 2 tests] and > 89.9 µM [sample B, mean of 2 tests]"}, {"measurement": "TGI", "setting": "[3]", "value": "3.19 µM [sample A, mean of 2 tests] and > 100 µM [sample B, mean of 2 tests]"}, {"measurement": "TGI", "setting": "[13]", "value": "2.41 µM [sample A, mean of 2 tests] and > 100 µM [sample B, mean of 2 tests]"}, {"measurement": "TGI", "setting": "[4]", "value": "3.85 µM [sample A, mean of 2 tests] and > 100 µM [sample B, mean of 2 tests]"}, {"measurement": "TGI", "setting": "[5]", "value": "8.92 µM [sample A, mean of 2 tests] and > 100 µM [sample B, mean of 2 tests]"}, {"measurement": "TGI", "setting": "[14]", "value": "3.38 µM [sample A, mean of 2 tests] and > 100 µM [sample B, 1 test]"}, {"measurement": "TGI", "setting": "[15]", "value": "5.62 µM [sample A, mean of 2 tests] and > 100 µM [sample B, mean of 2 tests]"}, {"measurement": "TGI", "setting": "[16]", "value": "2.65 µM [sample A, mean of 2 tests] and > 100 µM [sample B, mean of 2 tests]"}]}
{"molecule": "CN[C@H]1C=C[C@@H]2/C=C(C)/C=C/[C@@H](C)[C@H]([C@H](C)[C@H](O)[C@@H](C)NC(C)=O)OC(=O)/C=C/C=C(C)\\C=C\\[C@]2(C)C1", "values": [{"measurement": "TGI", "setting": "[1]", "value": "37.1 nM and 7.67 µM"}, {"measurement": "GI50", "setting": "[17]", "value": "3.58 µM and 47.3 nM"}, {"measurement": "GI50", "setting": "[18]", "value": "71.5 nM and 4.9 nM"}, {"measurement": "GI50", "setting": "[19]", "value": "44.5 nM and 5.01 µM"}, {"measurement": "GI50", "setting": "[10]", "value": "228 nM and 18.3 nM"}, {"measurement": "GI50", "setting": "[20]", "value": "49.8 nM and 1.78 µM"}]}
{"molecule": "COc1cc2c(c(OC)c1OC)-c1ccc(SC)c(=O)cc1[C@@H](NCc1ccc(C#N)cc1)CC2", "values": [{"measurement": "TGI", "setting": "[21]", "value": "59.4 nM and > 100 µM"}, {"measurement": "TGI", "setting": "[22]", "value": "63.8 nM and 44.8 µM"}, {"measurement": "TGI", "setting": "[23]", "value": "33.7 nM and 14.2 µM"}, {"measurement": "TGI", "setting": "[7]", "value": "21.8 nM and > 100 µM"}, {"measurement": "TGI", "setting": "[24]", "value": "294 nM and > 100 µM"}, {"measurement": "TGI", "setting": "[25]", "value": "21.7 nM and 857 nM"}]}
{"molecule": "Cc1cnc(NC(=O)Nc2cc(Br)c(C)cc2OC[C@@H]2CNCCO2)cn1", "values": [{"measurement": "TGI", "setting": "[26]", "value": "> 10 µM [sample A, 1 test] and 741 nM [sample B, mean of 2 tests]"}, {"measurement": "TGI", "setting": "[22]", "value": "6.44 µM [sample A, 1 test] and 522 nM [sample B, mean of 2 tests]"}, {"measurement": "TGI", "setting": "[27]", "value": "7.4 µM [sample A, 1 test] and 591 nM [sample B, mean of 2 tests]"}]}
{"molecule": "CC(=O)OCC1OC(n2c(-c3ccc(Cl)cc3)ccc(C#N)c2=S)C(OC(C)=O)C(OC(C)=O)C1OC(C)=O", "note": "(stereo unspecified)", "values": [{"measurement": "GI50", "setting": "[28]", "value": "8.77 µM [sample A, mean of 2 tests] and > 100 µM [sample B, 1 test]"}]}
